The supplement of paper PMC6531468
The list shows a part of the results. Values come from read counts of a selection and are noisy. Each score is taken over the longer molecules that contain the sequence shown.

Assays:
Assay in all cases: 6-mer SELEX enrichment z-score vs GST control; IMP3 is the RNA-binding protein IGF2BP3; higher = more enriched by binding
IMP3 KH1-4 = conditions: construct: KH1-4 (164-579); SELEX round: R4
Experimental: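 SELEX-seq with GST-tagged IMP3 KH1-4 (Pro164-Lys579) and an N40 RNA pool, round 4. 6-mer z-score of sequence-tag enrichment normalised to the corresponding GST SELEX round; RNA k-mers written as DNA (T for U).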

IMP3 full-length = IMP3 full-length (UniProt O00425); conditions: construct: FL IMP3 (1-579); SELEX round: R4
Experimental: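 SELEX-seq with GST-tagged full-length IMP3 and an N40 RNA pool, round 4. Each 6-mer is scored as an enrichment z-score of sequence tags containing it, normalised to the matching GST SELEX round. RNA written as DNA (T = U).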

IMP3 KH1-2 = conditions: construct: KH1-2 (164-376); SELEX round: R4
Experimental: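 SELEX-seq with GST-tagged IMP3 KH1-2 (Pro164-Phe376) and an N40 RNA pool, round 4 (stringent 300/600 mM KCl washes). 6-mer z-score of sequence-tag enrichment normalised to the corresponding GST SELEX round; RNA k-mers written as DNA (T for U).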

IMP3 KH3-4 = conditions: construct: KH3-4 (377-579); SELEX round: R4
Experimental: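 SELEX-seq with GST-tagged IMP3 KH3-4 (Pro377-Lys579) and an N40 RNA pool, round 4. 6-mer z-score of sequence-tag enrichment normalised to the corresponding GST SELEX round; RNA k-mers written as DNA (T for U).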

IMP3 RRM1-2 = conditions: construct: RRM1-2 (1-163); SELEX round: R2
Experimental: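 SELEX-seq with GST-tagged IMP3 RRM1-2 (Met1-Asn163) and an N40 RNA pool, round 2. 6-mer enrichment z-score normalised to GST SELEX. RNA written as DNA (T = U).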

Chain of UniProt O00425 (O00425 whole entry): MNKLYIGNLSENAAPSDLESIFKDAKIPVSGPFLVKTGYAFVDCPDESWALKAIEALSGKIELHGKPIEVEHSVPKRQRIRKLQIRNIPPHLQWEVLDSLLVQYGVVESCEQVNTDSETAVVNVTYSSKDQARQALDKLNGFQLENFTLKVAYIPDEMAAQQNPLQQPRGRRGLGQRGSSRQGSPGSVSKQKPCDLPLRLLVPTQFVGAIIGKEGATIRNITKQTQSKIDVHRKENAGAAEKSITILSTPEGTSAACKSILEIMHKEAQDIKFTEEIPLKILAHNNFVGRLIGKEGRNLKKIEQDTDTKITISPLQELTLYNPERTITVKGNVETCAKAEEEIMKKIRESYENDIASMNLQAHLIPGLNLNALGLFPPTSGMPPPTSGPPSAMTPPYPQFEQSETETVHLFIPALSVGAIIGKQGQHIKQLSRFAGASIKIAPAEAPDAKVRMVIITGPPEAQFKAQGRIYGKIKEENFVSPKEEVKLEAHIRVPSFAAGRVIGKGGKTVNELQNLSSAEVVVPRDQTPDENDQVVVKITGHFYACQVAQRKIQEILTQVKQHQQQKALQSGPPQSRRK
Chain of IMP3 KH1-4 (chain, as listed by the source): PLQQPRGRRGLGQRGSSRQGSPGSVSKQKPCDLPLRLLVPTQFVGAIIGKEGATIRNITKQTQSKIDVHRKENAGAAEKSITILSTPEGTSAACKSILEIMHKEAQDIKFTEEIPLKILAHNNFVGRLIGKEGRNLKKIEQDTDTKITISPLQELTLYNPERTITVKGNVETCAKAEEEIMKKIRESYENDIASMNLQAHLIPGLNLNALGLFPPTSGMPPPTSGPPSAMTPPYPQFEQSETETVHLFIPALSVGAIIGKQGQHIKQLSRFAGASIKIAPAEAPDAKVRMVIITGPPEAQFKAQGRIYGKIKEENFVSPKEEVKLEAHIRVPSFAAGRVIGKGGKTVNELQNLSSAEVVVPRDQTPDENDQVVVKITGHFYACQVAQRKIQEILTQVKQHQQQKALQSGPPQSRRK
Chain of IMP3 RRM1-2 (chain, as listed by the source): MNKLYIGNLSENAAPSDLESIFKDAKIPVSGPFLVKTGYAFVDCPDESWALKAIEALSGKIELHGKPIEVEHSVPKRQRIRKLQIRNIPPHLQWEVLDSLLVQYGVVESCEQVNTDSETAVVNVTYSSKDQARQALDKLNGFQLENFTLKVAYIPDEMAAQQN
Chain of IMP3 KH1-2 (chain, as listed by the source): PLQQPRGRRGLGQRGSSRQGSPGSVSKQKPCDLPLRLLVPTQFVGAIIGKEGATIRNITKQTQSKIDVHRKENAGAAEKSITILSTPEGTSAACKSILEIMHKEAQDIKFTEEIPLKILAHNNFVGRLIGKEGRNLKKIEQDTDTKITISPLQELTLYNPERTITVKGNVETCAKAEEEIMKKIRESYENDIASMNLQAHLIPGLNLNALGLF
Chain of IMP3 KH3-4 (chain, as listed by the source): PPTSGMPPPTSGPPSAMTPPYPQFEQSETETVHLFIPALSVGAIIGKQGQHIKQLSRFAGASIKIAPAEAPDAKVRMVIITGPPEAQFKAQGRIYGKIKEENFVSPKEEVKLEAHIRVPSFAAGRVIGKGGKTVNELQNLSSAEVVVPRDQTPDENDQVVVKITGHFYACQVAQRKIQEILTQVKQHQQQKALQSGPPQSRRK

| Sequence | 6-mer SELEX enrichment z-score (IMP3 KH1-4) | 6-mer SELEX enrichment z-score (IMP3 full-length) | 6-mer SELEX enrichment z-score (IMP3 KH1-2) | 6-mer SELEX enrichment z-score (IMP3 KH3-4) | 6-mer SELEX enrichment z-score (IMP3 RRM1-2) |
| --- | --- | --- | --- | --- | --- |
| ATTGTT | 0.602 | 0.156 | 0.354 | 0.674 | – |
| TTGTCC | 0.111 | -0.176 | -0.031 | – | – |
| ATAATA | 2.28 | 0.458 | 2.37 | – | – |
| TGCGTG | -1.31 | -0.958 | -1.25 | – | – |
| GTTAAC | -0.577 | -0.608 | -0.611 | -0.469 | – |
| AGTCTT | -0.185 | 0.096 | -0.152 | -0.028 | – |
| CCTTCG | -0.583 | -0.461 | -0.528 | -0.756 | – |
| CACCTA | -0.742 | -0.833 | -0.71 | – | – |
| TATAGG | 0.869 | – | – | 1.17 | 0.265 |
| CCCCAA | -1.55 | – | – | -2.39 | -1.37 |
| ACGCGG | 0.087 | – | – | 0.101 | -0.185 |
| GTAGGG | 0.212 | 0.301 | 0.376 | – | – |
| CTCTGC | -0.478 | -0.101 | -0.273 | – | – |
| GCTCCG | -0.227 | 0.384 | -0.013 | – | – |
| AAGACG | -0.849 | – | – | -0.598 | -1.28 |
| TCCCTA | -0.212 | – | – | -0.545 | -0.227 |
| GCATAG | -0.207 | 0.36 | -0.278 | – | – |
| GTAAAT | 0.302 | -0.431 | 0.078 | 0.714 | – |
| ACCTTG | -1.31 | -1.11 | – | – | – |
| TGCAGT | 0.738 | – | – | 0.448 | 0.19 |
| CATAAA | 1.5 | 1.01 | 1.85 | – | – |
| TGAACG | -0.815 | -0.96 | -0.885 | – | – |
| AGGGAG | 1.1 | 0.244 | 1.14 | – | – |
| CAACAC | 0.608 | 2.18 | 1.1 | – | – |
| ACCGCT | 0.181 | -0.03 | 0.588 | -0.151 | – |
| TCGCGA | -0.624 | -0.216 | -0.54 | – | – |
| AAGCCT | -0.934 | -0.953 | -0.908 | – | – |

| Sequence | 6-mer SELEX enrichment z-score (IMP3 KH1-4) | 6-mer SELEX enrichment z-score (IMP3 full-length) | 6-mer SELEX enrichment z-score (IMP3 KH1-2) | 6-mer SELEX enrichment z-score (IMP3 KH3-4) | 6-mer SELEX enrichment z-score (IMP3 RRM1-2) |
| --- | --- | --- | --- | --- | --- |
| GGCAGG | 1.35 | 1.72 | 1.19 | 1.06 | – |
| CGACGT | -1.76 | -0.927 | -1.62 | – | – |
| ACAGGC | 1.3 | 2.21 | 1.07 | 1.1 | – |
| TCTGTT | 0.511 | 0.305 | 0.507 | – | – |
| GGCGGC | 0.981 | – | – | 0.959 | 0.359 |
| CTTCTA | 0.528 | – | – | 0.446 | 0.212 |
| GTCGTA | -0.447 | -0.114 | -0.369 | -0.255 | – |
| GAAAAA | -0.948 | -3.07 | -0.681 | – | – |
| GTATGA | 0.166 | -0.363 | -0.075 | 0.393 | – |
| TATACA | 2.16 | 0.772 | 2.31 | 2.49 | – |
| AATGTG | 0.763 | -0.615 | 0.212 | 0.916 | – |
| GGCGAA | -0.436 | 0.352 | -0.444 | 0.053 | – |
| ACTCCA | -0.614 | -0.659 | -0.459 | -1.08 | – |
| ACGGTT | -0.188 | -0.162 | -0.282 | -0.107 | – |
| ATTAGC | 0.519 | 0.126 | 0.355 | 0.555 | – |
| AATGCC | -0.705 | -1.08 | -0.737 | -0.95 | – |
| CATATT | 1.95 | 1.2 | 1.97 | 2.23 | – |
| TTTGAG | -0.869 | -0.7 | -0.839 | -0.505 | – |
| CCATGT | 0.24 | -0.033 | -0.022 | -0.131 | – |
| TTAGCA | 0.542 | 0.275 | 0.341 | 0.412 | – |
| CAAACT | -0.218 | -0.615 | -0.105 | -0.477 | – |
| CAACCA | 0.109 | 0.785 | 0.375 | -0.753 | – |
| GTTCCA | 0.102 | -0.011 | 0.048 | -0.154 | – |
| TCTCGT | -0.37 | 0.138 | -0.254 | -0.147 | – |
| CGCGCT | -0.362 | 0.147 | -0.208 | -0.272 | – |
| TGACCA | -0.301 | -0.824 | -0.47 | -0.677 | – |
| CAGTAC | 0.14 | 0.823 | 0.098 | -0.3 | – |
